# Measured values from PubChem BioAssay AID624173 (National Center for Advancing Translational Sciences (NCATS), 2012).
# Hit rate of the full screen: of about 410,000 compounds, about 490 (0.12%) were called active. The shares of active, inactive and inconclusive entries below differ from those in the screen. Calls follow the shape of the dose curve; as a rule, active = well fitted inhibition curve with a large enough effect; inconclusive = small, poorly fitted or top-dose-only effect; inactive = flat fitted curve, though single readings scatter. Potencies beside an inconclusive call are fits to weak or partial responses and may not hold up.
# Target: pyruvate kinase (Trypanosoma brucei) (UniProt Q57TT1)
# Assay: qHTS of Trypanosoma Brucei Inhibitors; also: nearly all actives have a fitted effect of over 50% in size
# Conditions: TbPYK enzyme, Kinase-Glo Plus ATP luminescence, 45 min; series mostly up to 76.8 µM
# How it was run: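 Activity of T. brucei pyruvate kinase was followed by Kinase-Glo Plus luminescence after the enzyme reacted 45 min at room temperature with 130 uM ADP (final) and substrate. Test compounds were added before ADP at multiple concentrations.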
# % is scaled to controls: 0 for no effect and ±100 for the full control effect; potency is read from the fitted curve at half-maximal effect; tags tell the direction and shape of the fitted curve.
SMILES,Potency,"activity, negative = inhibition"
Cn1c(-c2ccc(Br)o2)nc2cc(Br)ccc21,"inconclusive: 50.1 µM [inhibitor, single point]",–
COc1cc(CNc2ccc(N3CCCC3)cc2)ccc1OCc1ccccc1,"inconclusive: 31.6 µM [inhibitor, partial curve, poor fit]",–
COc1ccc(CCNC(=O)C2=CCN(S(=O)(=O)c3ccc(F)cc3)CC2)cc1OC,inactive,–
Nc1nc2c(s1)CCc1ccccc1-2,"inconclusive: 35.5 µM [inhibitor, single point]",–
CCCCC(=O)NC(N1CCCCC1)C(Cl)(Cl)Cl (stereo not drawn),"inconclusive: 44.7 µM [inhibitor, single point]",–
CCc1ccccc1Nc1nc2ccccc2n1CC,inactive,–
COC(=O)CSc1nc(-c2cccs2)ccc1C#N,"inconclusive: 39.8 µM [inhibitor, single point]",–
COc1ccc(C(=O)/C=C/C(=O)N(CC(=O)NC2CCCCC2)Cc2cccs2)c(O)c1,"inconclusive: 25.1 µM [inhibitor, partial curve]",–
O=C(Nc1nc2ccc(S(=O)(=O)N3CCCCC3)cc2s1)c1cccnc1,"inconclusive: 28.2 µM [inhibitor, single point]",–
CC(=O)N1CCc2c(sc(NC(=O)c3ccc([N+](=O)[O-])o3)c2C(N)=O)C1,"inconclusive: 22.4 µM [inhibitor, partial curve, poor fit]",–
CCNc1sc(C(=O)c2cccs2)c(N)c1C#N,"inconclusive: 39.8 µM [inhibitor, single point]",–
CCCC#Cc1cnc2c(c1)C(=O)N([C@H](C)CO)C[C@@H](C)[C@@H](CN(C)C(=O)Nc1cccc(F)c1)O2,"inconclusive: 39.8 µM [inhibitor, single point]",–
CCN(CC)C(=S)Sc1c(-c2ccccc2)c2cc(Cl)ccc2[nH]c1=O,"inconclusive: 12.6 µM [inhibitor, partial curve, poor fit]",–
CCC(C)Sc1nnc(CNC(=O)C23CC4CC(CC(C4)C2)C3)n1C1CCCCC1 (stereo not drawn),"inconclusive: 14.1 µM [inhibitor, partial curve, poor fit]",–
COc1cccc(OC)c1C(=O)Nc1ccc(N2CCCC2)cc1,"inconclusive: 7.94 µM [inhibitor, full curve]",–
Cc1c(Cc2ccccc2)[n+](=O)c2ccccc2n1[O-],inactive,–
CCN1CCN(C(=S)c2ccc(Cl)cc2)CC1,"inconclusive: 14.1 µM [inhibitor, partial curve, poor fit]",–
CN(C)S(=O)(=O)c1cccc(-n2sc3ccccc3c2=O)c1,active: 3.98 µM,–
COc1ccc(C(=O)O)cc1NC(=S)NC(=O)c1ccc(-c2ccc(Cl)cc2)o1,inactive,–
COc1ccc(CCNC(=O)CCC(=O)n2ncc3ccc(Cl)cc32)cc1OC,inactive,–
FC(F)(F)c1cccc(N2CCc3cn[nH]c32)c1,inactive,–
Cc1ccc2c(c1)c1ccc3c(c1n2C)C(=O)C=CC3=O,"inconclusive: 31.6 µM [inhibitor, single point]",–

SMILES,Potency,"activity, negative = inhibition"
COC(=O)COc1ccc(C2Nc3c(Cl)ccc(C(=O)O)c3C3C=CCC32)cc1 (stereo not drawn),"inconclusive: 14.1 µM [inhibitor, partial curve]",–
CNc1ccc(N=Nc2cccc3ncccc23)cc1,inactive,–
O=S(=O)(c1ccc2oc(=S)[nH]c2c1)N1CCCCC1,"inconclusive: 28.2 µM [inhibitor, partial curve, poor fit]",–
Cc1ccc(NC(=O)CCC(=O)NNC(=O)c2cccc([N+](=O)[O-])c2)cc1C,"inconclusive: 50.1 µM [inhibitor, single point]",–
CSc1ccc(CNCCCSc2ncccn2)cc1,inactive,–
COc1cc(/C=C2\SC(c3ccc(C)cc3)=NC2=O)cc(OC)c1OC,"inconclusive: 3.98 µM [inhibitor, full curve, poor fit]",–
COC(=O)C1=C(C)N(Cc2ccc(C)cc2)C(=O)/C1=C\c1ccc(O)c(OC)c1,"inconclusive: 10 µM [inhibitor, partial curve]",–
CN(C)C(=O)c1cc2c(c(-c3cccc(C4=CCCCC4)c3)n1)[C@@H](CCO)N(S(=O)C(C)(C)C)C2 (stereo partly drawn),"inconclusive: 50.1 µM [inhibitor, single point]",–
COc1ccc(CNS(=O)(=O)c2ccc3c(c2)CCN3C(=O)C2CC2)cc1,"inconclusive: 14.1 µM [inhibitor, partial curve, poor fit]",–
N#CC1=C2SCN(Cc3ccccc3)CN2C(=O)CC1c1cccs1 (stereo not drawn),"inconclusive: 20 µM [inhibitor, partial curve, poor fit]",–
CN(C)CCNC(=O)c1ccc(-n2c(-c3ccccc3)cc3c2CCCC3)cc1,inactive,–
CN1C(=O)C(=Cc2ccc(N3CCCCC3)o2)C(=O)N(C)C1=S,inactive,–
[Cl-].[Cl-].[Hg+2],"inconclusive: 1.26 µM [inhibitor, full curve, poor fit]",–
COc1ccc(-c2n[nH]c(=S)n2CC(C)C)cc1,"inconclusive: 15.8 µM [inhibitor, partial curve, poor fit]",–
COc1cc(NC(=O)Cn2c(=O)oc3cc(S(=O)(=O)N4CCCCCC4)ccc32)cc(OC)c1,–,inactive: 3.71% [at 15.4 µM]
O=C(NC(=S)N1CC=CCC1)c1ccccc1,"inconclusive: 28.2 µM [inhibitor, single point]",–
CC(C)(C)c1ccc(-c2n[nH]c(=S)n2-c2ccccc2)cc1,"inconclusive: 3.16 µM [inhibitor, full curve, poor fit]",–
Cc1ccc(-n2c(C)n[nH]c2=S)cc1,"inconclusive: 20 µM [inhibitor, partial curve, poor fit]",–
CCCOc1ccc(CCc2n[nH]c(=S)n2-c2ccccc2)cc1,"inconclusive: 4.47 µM [inhibitor, partial curve, poor fit]",–
COc1ccc(N(CC(=O)NCCSC2CCCCC2)S(C)(=O)=O)c(OC)c1,"inconclusive: 39.8 µM [inhibitor, partial curve, poor fit]",–
Cn1c(CSCCOc2ccccc2)n[nH]c1=S,"inconclusive: 12.6 µM [inhibitor, partial curve]",–
